In PubChem BioAssay AID485344 (National Center for Advancing Translational Sciences (NCATS), 2010):
About 6,900 (2%) of roughly 340,000 compounds were called active. Rule as the data show it: active = inhibition above about 30%; inactive = below that, where a call was filed. This is a selection; strong and weak results do not stand in their true shares. The source gives no active or inactive call for entries shown without one.

The compounds below were run against D(2) dopamine receptor (Homo sapiens) (UniProt P14416) (assay: HTS Assay for Allosteric Antagonists of the Human D2 Dopamine Receptor: Primary Screen for Antagonists). Conditions: HEK293 TREx D2 cells, calcium flux, dopamine EC80; at 10 µM; stronger effect = higher value.
Sequence of UniProt P14416 (P14416 whole entry, looked up): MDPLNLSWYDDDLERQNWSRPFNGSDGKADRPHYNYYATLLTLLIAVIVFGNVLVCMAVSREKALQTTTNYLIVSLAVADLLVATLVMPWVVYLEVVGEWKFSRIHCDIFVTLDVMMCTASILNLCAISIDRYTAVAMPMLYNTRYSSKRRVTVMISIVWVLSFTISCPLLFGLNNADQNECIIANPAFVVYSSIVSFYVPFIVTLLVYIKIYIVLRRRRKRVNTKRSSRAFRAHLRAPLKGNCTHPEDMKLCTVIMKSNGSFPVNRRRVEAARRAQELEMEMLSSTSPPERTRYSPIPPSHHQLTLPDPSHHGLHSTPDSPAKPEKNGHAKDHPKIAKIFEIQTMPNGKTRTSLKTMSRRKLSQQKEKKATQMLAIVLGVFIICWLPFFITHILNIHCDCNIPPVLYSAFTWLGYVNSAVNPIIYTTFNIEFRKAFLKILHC
In short: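 Dopamine at EC80 is the agonist stimulus; test compounds precede it by 180 s. Calcium flux read kinetically in a force-coupled, inducible HEK293 T-REx D2 cell line.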
Also: 0% is about no effect.

SMILES | inhibition
CCn1c(=O)c2sccc2n2c(CCCC(=O)Nc3ccc(C)cc3)nnc12 | 13.2%
COc1cc(NC(=O)c2c(C)nn(-c3ccc(F)cc3)c2-n2cccc2)cc(OC)c1 | -5.64%
COc1ccc(-n2nnnc2C2CCN(S(=O)(=O)c3cc(Cl)ccc3OC)CC2)cc1 | 3.58%
Cc1ccc(N2CCN(c3ncnc4onc(-c5ccc(F)cc5)c34)CC2)c(C)c1 | -12.5%
Cc1ccc(S(=O)(=O)NCCc2nnc3ccc(SCc4cccc(F)c4)nn23)cc1 | 1.6%
COc1ccc(NC(=O)C2CCN(c3nc4ccccc4[nH]3)CC2)cc1OC | 9.76%
Cc1ccc(NC(=O)CSc2nnc(C)s2)c(C)c1 | 3.42%
COc1ccccc1/C=C/CN1CCC(Oc2ccc(C(=O)N3CCCCC3)cc2)CC1 | active: 68.6%
COc1ccc(-c2nc(SCC(=O)NCc3nc4ccccc4n3C)n3[nH]c(=O)cc3n2)cc1 | -5.5%
CCCCN1C(=O)C(NC(=O)c2ccc(C(C)(C)C)cc2)(C(F)(F)F)C(C(=O)OC)=C1C (configuration not stated) | -3.64%
c1ccc(OCCOCCN2CCc3ccccc3C2)cc1 | active: 64.9%
Cc1cc(O)c(C(c2ccc(F)cc2)N2CCN(c3ccccc3)CC2)c(=O)n1Cc1ccco1 (configuration not stated) | 0.461%
CC(NC(=O)c1cccc(Nc2nc3ccccc3n3nnnc23)c1)c1ccccc1 (configuration not stated) | 15%
O=C(CSc1nc2c(c(=O)[nH]1)CCC2)Nc1cccc(O)c1 | -14.4%
COc1ccc(OC)c(NC(=O)Nc2cccc(OCc3cc(=O)n4cc(C)ccc4n3)c2)c1 | -15.2%
COc1ccc(Cn2nnnc2CN2CCc3ccccc3C2)cc1 | active: 34.4%
CCN1CCN(c2oc(-c3ccc(COc4ccc(OC)cc4)o3)nc2C#N)CC1 | -0.48%
CC(C)(C)OC(=O)N1CCC(c2c(C(=O)NCCN3CCOCC3)cnn2-c2cccc(F)c2)CC1 | 6.02%
CC(=O)c1ccc(N2C(=O)N(Cc3ccc(F)cc3)c3ccccc3S2(=O)=O)cc1 | -5.22%
CCN(CC)S(=O)(=O)c1nnc(NC(=O)COc2ccccc2)s1 | 13.5%
COc1ccc(C2(CNC(=O)C(=O)Nc3ccc(C)c(Cl)c3)CCCC2)cc1OC | 11%
Clc1cccc(-n2ncc3c(NCCC4=CCCCC4)ncnc32)c1 | -0.326%
COc1ccc(OC)c(C(=O)CN2C(=O)N(c3cc(C)cc(C)c3)S(=O)(=O)c3ccccc32)c1 | 1.01%
CCCCCN1C(C(=O)c2ccccc2)=C(NC(=O)c2ccc(OC)c(OC)c2)c2ccccc2S1(=O)=O | -7.57%
COC(=O)c1ccccc1NC(=O)CSc1cc(-c2ccccc2)nc(C)n1 | -0.524%

SMILES | inhibition
Cc1ccc(CNC(=O)CCC(=O)n2ncc3cc(C)ccc32)cc1 | active: 46.5%
COc1ccc(OC)c(CN2CCN(C(=O)c3cccs3)CC2)c1 | active: 71%
O=C(C1CCCN(S(=O)(=O)c2cccc3nonc23)C1)N1CCN(c2ccccc2F)CC1 (configuration not stated) | 21.9%
COc1ccc(NC(=O)N2CCC(CN3CCCC3)CC2)c(OC)c1 | -4.29%
O=C(CCn1c(=O)c2cccn2c2ccc(F)cc21)NCCc1ccc(Cl)cc1 | 13.6%
Clc1ccc(-c2ccc(CNCCSc3nnnn3-c3ccccc3)o2)cc1 | 5.78%
Cc1ccc2c(c1)-c1onc(C(=O)N3CCN(c4cc(C)ccc4C)CC3)c1CO2 | 9.61%
Cc1cc(C)n(-c2nc3cc(Cl)ccc3nc2N2CCN(c3cccc(C)c3C)CC2)n1 | -3.68%
Cc1ccc(CCNC(=O)Cn2ncc3c([nH]c4ccccc43)c2=O)cc1 | -5.62%
COc1ccccc1CNS(=O)(=O)c1c(C(=O)N2CCC(C)CC2)c(C)n(C)c1C | 8.92%
COc1ccc(N2CCN(c3ncnc4c3nc3n4CCCCC3)CC2)cc1 | -15.9%
Cc1ccc(S(=O)(=O)c2cn(C)c3cc(N4CCOCC4)c(F)cc3c2=O)c(C)c1 | 7.07%
Cc1ccc(CCNC(=O)C2COc3ccccc3C2)cc1 (configuration not stated) | 9.67%
Cc1ccc(Cl)cc1-n1c(=O)c2sc3ccccc3c2n(CC(=O)NC2CCCC2)c1=O | -19.6%
Cc1ccc2nc(SCC(=O)c3ccc(Cl)cc3)nc(=O)n2c1 | active: 32.1%
Cc1ccc(S(=O)(=O)c2cn(C)c3cc(N4CCCCC4)c(F)cc3c2=O)cc1 | 7.97%
COc1ccc(C)cc1NC(=O)N1CCC(CN2CCC(C)CC2)CC1 | -1.34%
CCc1c(C)c2ccc(O)c(CN3CCN(c4ccccc4)CC3)c2oc1=O | 1.61%
CCN1CCN(c2cc(C)c3cc(NC(=O)c4ccccc4F)ccc3n2)CC1 | -19.3%
CCOC(=O)c1c(NC(=O)COc2ccc(Cl)cc2C)sc(C(C)=O)c1C | 1.73%
Cc1ccc(N2CCN(c3nc4c(S(=O)(=O)c5ccc(C)c(C)c5)nnn4c4ccccc34)CC2)c(C)c1 | 8.34%
CCc1cccc(C)c1NC(=O)CN(C)S(=O)(=O)c1cccc2nsnc12 | 9.57%
Cc1c(C(=O)N(Cc2ccc(N(C)C)cc2)CC2CCCO2)oc2ccc(Br)cc12 (configuration not stated) | -11.4%
CCc1ccc(-n2nc(C)c3c(C(=O)Nc4cc(C)ccc4C)cc(C)nc32)cc1 | 7.88%
CCOc1ccccc1CNC(=O)C1CCCN(S(=O)(=O)c2ccc3c(ccn3C)c2)C1 (configuration not stated) | -13.6%

SMILES | inhibition
CC1CCN(S(=O)(=O)c2nnc(NC(=O)c3cccc(F)c3)s2)CC1 | -14%
COC(=O)c1sc2cccc(F)c2c1S(=O)(=O)N1CCN(c2ccc(C)cc2C)CC1 | -8.4%
COc1nc(-c2ccc(C)cc2)ccc1-c1noc(-c2ccc(C(C)(C)C)cc2)n1 | -8.91%
COc1ccc(CCNC(=O)C2CC(=O)N(C3CCCCCCC3)C2)cc1OC (configuration not stated) | active: 92.7%
Cc1cccc(N2CCN(C(=O)c3ccc4c(c3)c(C)c(C)n4C)CC2C)c1 (configuration not stated) | 3.22%
Cc1ccc(NC(=O)c2cc(S(=O)(=O)N3CCCC3)c[nH]2)c(C)c1 | 19.6%
Cc1cncn1CCc1nc2c3ccccc3nc(SCC(=O)Nc3ccccc3F)n2n1 | -28.3%
Cc1ccc(-n2c(SCC(N)=O)nc3c([nH]c4ccccc43)c2=O)cc1 | -13.4%
O=C(c1ccc(CS(=O)(=O)c2c(Cl)cccc2Cl)o1)N1CCN(c2ccccc2)CC1 | 13.5%
CCC(C)NCCOc1cccc(Br)c1 (configuration not stated) | active: 45%
Cc1ccc(Cl)cc1N1CCN(c2ncnc3onc(-c4ccc(F)cc4)c23)CC1 | -10.6%
Cc1ccc(Cn2c(C)c(CNC(C)c3ccccc3)c(C(=O)O)c2C)cc1 (configuration not stated) | 6.75%
Cc1ccc(S(=O)(=O)Cc2nc(-c3ccc(C(=O)NCc4ccccc4F)cc3)oc2C)cc1 | 15.8%
Cc1ccc(-c2nnc(Nc3cccc(C(F)(F)F)c3)c3ccccc23)cc1S(=O)(=O)N1CCOCC1 | 9.86%
CC(C)(C)c1ccc(-c2noc(CCC(=O)Nc3cccc(Cl)c3)n2)cc1 | -4.34%
Cc1ccc(O)c(C2=Nc3ccccc3N=C(c3cccc(F)c3)C2)c1 | 23.9%
O=C(Nc1ccc(C(=O)N2CCN(c3ccc(Cl)cc3)CC2)cc1)c1nsc2ccccc12 | -24.7%
Cc1ccc2oc(-c3cc(NC(=O)c4cccs4)cc(C)c3O)nc2c1 | -14.5%
O=C(NC1CCN(Cc2ccccc2)CC1)C1CCN(S(=O)(=O)c2ccc(Cl)cc2)CC1 | active: 33.2%
COc1ccc(Br)cc1CNC(=O)C1COc2ccccc2C1 (configuration not stated) | 5.69%
CC(C)(C)C(=O)n1nc(-c2ccccc2)oc1=O | active: 30.5%
COc1ccc(CNC(=O)CN2C(=O)COc3ccc(S(=O)(=O)N4CCOCC4)cc32)cc1 | 4.41%
CCc1ccccc1NC(=O)c1cc(-c2ccc3c(c2)OCO3)on1 | -11.6%
CCOCN(C(=O)Cn1cnc2cc(C)c(C)cc21)c1c(C)cccc1CC | -7.83%
CC1CCCCN1C(=O)CSc1nnc(-c2ccccc2Cl)o1 (configuration not stated) | 5.28%

SMILES | inhibition
CCOc1ccc(N(CC)S(=O)(=O)N2CCCC(C(=O)NCCc3ccccc3OC)C2)cc1 (configuration not stated) | 17.5%
COc1ccccc1CNC(=O)Cn1c(=O)ccc2cc(S(=O)(=O)N3CCCC3)ccc21 | -2.8%
COc1ccc(-c2cn3nc(N4CCC(C(=O)Nc5ccc(C)cc5)CC4)sc3n2)cc1 | 5.87%
CCOc1ccccc1N(CC(=O)Nc1ccc(OC)c(Cl)c1)S(=O)(=O)c1ccccc1 | 1.78%
Cc1ccc2oc3c(c(=O)c2c1)C(c1ccc(OCC(N)=O)cc1)N(Cc1ccc2c(c1)OCO2)C3=O (configuration not stated) | 8.25%
CNC(=O)CSc1nnc(NC(=O)Nc2ccccc2)s1 | 8.09%
COc1ccc(NC(=O)C(=O)NCC2(c3ccccc3)CCCC2)c(OC)c1 | -16.8%
COc1ccc(C(=O)NCC(c2ccc3c(c2)OCO3)N2CCN(c3ccc(F)cc3)CC2)cc1 (configuration not stated) | 8.83%
Cc1ccc(N(CC(C)C)S(=O)(=O)c2nnc(NC(=O)c3cccs3)s2)cc1 | 11%
Fc1ccc(Nc2nc(Nc3ccc(F)cc3)nc(N3CCOCC3)n2)cc1 | 6.05%
CCCCn1c(SCC(=O)Nc2ccc(F)cc2)nc2c(sc3ccccc32)c1=O | -20.4%
CC(C)c1ccc(NC(=O)Cn2nnc(C(=O)NCc3cccs3)c2N)cc1 | -2.95%
Cc1ccc2nc(SCC(=O)Nc3ccc(C#N)cc3)[nH]c2c1 | -1.8%
Cc1ccn2c(Nc3ccc4c(c3)OCCO4)c(-c3ccc(C)s3)nc2c1 | -6.59%
O=C(COC(=O)CCNS(=O)(=O)c1ccccc1)Nc1ccc(OC(F)F)cc1 | active: 49.9%
Cc1c(C(=O)N2CCC(C)CC2)c(S(=O)(=O)N2CCN(c3cccc(Cl)c3)CC2)c(C)n1C | 0.994%
COc1ccc(OC)c(NC(=O)CCc2nc(-c3ccc(C)cc3)no2)c1 | 5.82%
CN1C(=O)c2[nH]nc(-c3ccc(F)cc3)c2C1c1ccccn1 (configuration not stated) | 12.8%
COc1ccc(S(=O)(=O)c2cn(Cc3ccccc3)c3cc(F)c(F)cc3c2=O)cc1 | -6.68%
Clc1ccccc1CN1CCN(CCCc2ccccc2)CC1 | active: 65.4%
O=c1c(S(=O)(=O)c2ccc(Cl)cc2)cn(Cc2ccc(F)cc2)c2ccc(F)cc12 | -1.95%
CC(C)CCN(Cc1ccco1)C(=O)Cn1ncc2c([nH]c3ccccc32)c1=O | -7.43%
